# This is one part of the list.
# T1: UNK ZnF1-3 (human, UniProt Q9C0B0 31-174)
# T1 sequence: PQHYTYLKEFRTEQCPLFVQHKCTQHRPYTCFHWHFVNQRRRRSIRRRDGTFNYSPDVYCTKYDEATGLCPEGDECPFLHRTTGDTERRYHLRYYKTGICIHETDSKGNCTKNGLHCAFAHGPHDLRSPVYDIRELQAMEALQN
# B1: chr1:45868982:45868983:+_ENSMUSG00000025995_ENSMUST00000027139|mus_hu|FALSE|FALSE (ssRNA)
# RNA: GGGAGUUCUACAGUCCGACGAUCAGAAGUGCAGAAUAAAUCUCCUGCAGGCGAGACUGAGAUAUGUUCAAUAGUAGCUCCUAAACGCGGGAGAAACUCCUUAUUCUUCUCUGUUGCAUCGCGCCACUCUACAAGUACAGAUUCCAACAGAGGAUUGAGCAUCA
# B2: chr2:48034816:48034817:-_ENSG00000138081_ENST00000403359|hu_mus|FALSE|FALSE (ssRNA)
# RNA: GGGAGUUCUACAGUCCGACGAUCUCAUAUUCUCAAUCUGAAUACAUGUUAAACAAAAAAAAAAAAAUCAAUGCAGAAGUGCUAGCUCACAUUUUUACCAUAUUACAAAAAGCAAUUGGUACCCAUGUCCAUAAAGGCAGCAACCAACAGAGGAUUGAGCAUCA
# B3: chr1:39494564:39494565:+_ENSG00000168653_ENST00000372967|hu_hu|hu_hu_hu_mus_True|68_98 (ssRNA)
# RNA: GGGAGUUCUACAGUCCGACGAUCAUGCAUUCGCCUCAUCGUUUUCUACCGAAGCAAGCACUCUUCGAAAUCAUCAUACUCUAUCUUGCACUCCUUUUUCGCCCGGGUCCCACCGAUCCCGUGUGCACACUCUAUCCACUCUUUCAACAGAGGAUUGAGCAUCA
# B4: 137028346_137028466_205_5pUTR_ENSG00000105894_ENST00000348225|human|control|control (ssRNA)
# RNA: GGGAGUUCUACAGUCCGACGAUCUCUCUCCACUUUGGAUUUUCCUCUGCUCUGGGGCUCUCUUGGCGGGAUUUUUGGACUGGAAGGCGGGGAACCUGAUCCUGCCUUUGACUCAAUUACGCCCUGACAGGGAGGGAACGGAAGCAACAGAGGAUUGAGCAUCA
# B5: chr13:14287670:14287671:+_ENSMUSG00000039219_ENSMUST00000039538|mus_mus|motif|central (ssRNA)
# RNA: GGGAGUUCUACAGUCCGACGAUCAGCAGCACUUUCUCUCUCUUUCUUCUUUAAACGUUUUCUCCUCCUAUCAAUGGAAGCGGCUUCAGAUUUUAAAGACAGAUAAUGCUUUCUGAUUUCUUGCAAUUUUUCUUGAAGAAUUGACAACAGAGGAUUGAGCAUCA
# B6: chr2:163839828:163839829:+_ENSMUSG00000018326_ENSMUST00000018470|mus_hu|motif|central (ssRNA)
# RNA: GGGAGUUCUACAGUCCGACGAUCGGAGUUCGACACAGUGGUUUGUUUGUUGUCUCCAGAUGCCACUUCAGAAAGAUACCGGAAAUAAUCUCCUUUCAUUUUCAAGUAGAACACCUUACUUUCUGGUUGUGUAGCAUUGGGAAUCAACAGAGGAUUGAGCAUCA
# B7: 172339047_172339167_3373_3pUTR_ENSG00000115827_ENST00000375255|human|control|control (ssRNA)
# RNA: GGGAGUUCUACAGUCCGACGAUCACUGAAGUCUUAAGACAUCCUAUUCUGAAACACUCUUGGAAAUGGAGAAUGAACACUCUACUUUUACACAGCAUUGCAGCUGCUUUGAAACUCACACAACAUUGGUUUCUUUCUUUAGUACAACAGAGGAUUGAGCAUCA
# B8: chr4:104905227:104905228:+_ENSMUSG00000028517_ENSMUST00000064139|mus_mus|FALSE|FALSE (ssRNA)
# RNA: GGGAGUUCUACAGUCCGACGAUCAACGGAAUCUUACAAAAAUACUGACAAUUUAAUGUUUUUAUACAGUUUUUUUUCUCUAGUUGCAGUUAUUUCAUUGUAAAACAAUGGCUACCACAGAACUAUAUCUUUAGUUGAGAUUAACAACAGAGGAUUGAGCAUCA
# B9: chr8:95500983:95500984:-_ENSG00000164944_ENST00000437199|hu_hu|hu_hu_hu_mus_True|48_78 (ssRNA)
# RNA: GGGAGUUCUACAGUCCGACGAUCAGAACACAUCUAUCGAGUAAAGGACCGUACAUGGACGACCUCUCCACUGCCUCCACUAACAAAACUUUCCUCUGAGCCUCCACUGCCGCUAUUUGUACUAGCCCAGGACGGUCCCAGGCCCAACAGAGGAUUGAGCAUCA
# B10: chr3:75345182:75345183:-_ENSMUSG00000027835_ENSMUST00000161137|mus_mus|FALSE|FALSE (ssRNA)
# RNA: GGGAGUUCUACAGUCCGACGAUCAAGUGGUCUCAGCUUCAUUCUUCAUCUCUUCCAUUGUCAUCCUCAUUCAAAAGCCAACUACAGUAGAAAAAGCAAUGCUAAAAUGCAGAGGAAUCUUCAUUCACUGCCGAAUUUCUUCCCCAACAGAGGAUUGAGCAUCA
# B11: 139818580_139821097_150_3pUTR_ENSMUSG00000045438_ENSMUST00000049630|mouse|control|control (ssRNA)
# RNA: GGGAGUUCUACAGUCCGACGAUCUGUCACGGAGACACCUCAUGAAUUUUUCUUUAAAGCUUUUACAUUCACCGAAGUGGUCCAGCGGGAAGCUGCCUUUGUCUGGGGGCCGCGGCUGGAAGCUUUUGGUCCCGAAGUUCAUUGCAACAGAGGAUUGAGCAUCA
# B12: chr6:67234108:67234109:+_ENSMUSG00000036371_ENSMUST00000042990|mus_mus|FALSE|FALSE (ssRNA)
# RNA: GGGAGUUCUACAGUCCGACGAUCCUACCAAUACAUUUCUAAAUACAAAACUGACUAACAUAUUUUGUUACUUCUGUGUAGCUAGAGAAGUUCGUUUUCAAAACAGAUAAAAUUCAGUCUUUAGGUGUGAAUGGUAUGAAUGACCAACAGAGGAUUGAGCAUCA
# B13: chr18:52893488:52893489:-_ENSG00000196628_ENST00000354452|hu_hu|hu_hu_hu_mus_True|1_48 (ssRNA)
# RNA: GGGAGUUCUACAGUCCGACGAUCUAUUUAGACCAUUUCCGCGGAGUUAUGGCAUUUACUCAGUGCUGAUAGGUGGAAAAACUACUUGAACAGGGAUUUUUUUUUUCCUUAAUACAUGCCAAGAUUGUGUGGCUGUCAAAAAUACAACAGAGGAUUGAGCAUCA
# B14: chr12:45383586:45383587:+_ENSMUSG00000036257_ENSMUST00000043082|mus_mus|motif|central (ssRNA)
# RNA: GGGAGUUCUACAGUCCGACGAUCAAAUAUAUAUAUCUAGAGUCAAAUUAAUAGACAUAACUUAAAAAUCAUUUAUUUUCGGUGUGACAUUCUCUCAUUCCAUUCCUGAAUGCUUCAUUUAGGAAAUUCCAUAAUUCAUGGUCUCAACAGAGGAUUGAGCAUCA
# B15: chrX:119680447:119680448:-_ENSG00000158290_ENST00000371322|hu_hu|FALSE|FALSE (ssRNA)
# RNA: GGGAGUUCUACAGUCCGACGAUCAAACAAAAAAAUGCUCCUGAUCAUGAUCAUUUGUCUGCAAUGGUUUUGCCAGCAUCUAUCAAUCUUCUUUAAAAAAAGAACGCUAUCCAAUGAAUCCUCUCUGAAUUGAUGAAUCUGUGCCAACAGAGGAUUGAGCAUCA
# B16: chr11:251552:251553:+_ENSG00000185627_ENST00000382671|hu_hu|FALSE|FALSE (ssRNA)
# RNA: GGGAGUUCUACAGUCCGACGAUCUAGCACUUUUGGCAAUUUCUUCAAAAGUGAGUUGUCUGUGAUUGGCAGGUCGUGUGAAAGUCAUCUCCAUGAGGCACAACAACUGAAUUUUCCUCAGAAGCUGGGCUUCAUUAGCUGCUACAACAGAGGAUUGAGCAUCA
# B17: chr14:22594296:22594297:+_ENSMUSG00000021770_ENSMUST00000119430|mus_hu|FALSE|FALSE (ssRNA)
# RNA: GGGAGUUCUACAGUCCGACGAUCAUCAUAUUCAGUCAAUGUUAGCAAUGUGAUUCCAUCAAGUCGGUGCUUAUUGCAUAAAAUGUCCACAUAUUCAAAAAAGCCUUCAUCCUUCAGCCACACAGCUACAUGCUUGGUAGUCCACAACAGAGGAUUGAGCAUCA
# B18: chr2:47388980:47388981:-_ENSG00000143933_ENST00000272298|hu_hu|FALSE|FALSE (ssRNA)
# RNA: GGGAGUUCUACAGUCCGACGAUCUUCAUCUGUUAACUUCUCUCCAAGGUUUGUCAUCACAUGGCGAAGUUCUGCAGCACUAAUAUAGCCAUUGCCAUCCUUAUCAAACACACGGAAUGCUUCUCUAAUUUCUUCUUCACUGUCCAACAGAGGAUUGAGCAUCA
# B19: 58329970_58341467_288_3pUTR_ENSMUSG00000027810_ENSMUST00000029387|mouse|control|control (ssRNA)
# RNA: GGGAGUUCUACAGUCCGACGAUCCUUCCAGAUUCUCUGGGAAGCACCGUGCUUUCUGUGAAGUGUGGUGGUCCAUUCACCAUGUACAGUCCCUCUGAUCCUCUGACUGUCAACAGCGGUGUGGACGGCGCCAUCUUGUCCCGGCAACAGAGGAUUGAGCAUCA
# B20: chr9:66219764:66219765:+_ENSMUSG00000038664_ENSMUST00000042824|mus_hu|FALSE|FALSE (ssRNA)
# RNA: GGGAGUUCUACAGUCCGACGAUCUUCAAAGUCUGGCAACUGUGGUCCUUUGAGGCAUAAAACUUGUUGGGGCAAAGGUACUACUUCCUUAUUGCUAACCAGUUUAGAAUACAGAACAGCAACUCCCUCUCUUGUAGCAAUAGACAACAGAGGAUUGAGCAUCA
# B21: chr1:25278652:25278653:-_ENSMUSG00000033569_ENSMUST00000126626|mus_hu|FALSE|FALSE (ssRNA)
# RNA: GGGAGUUCUACAGUCCGACGAUCGCAGAUACUCUUAUUAUGUGUCUGAGUCUGUCCAACCAGUAUGAGGAUAUUGGAUGAGAUGAUAGACAGGCAGAAGUUAAUUAGUAUUAUGGAUCUCUCAGAGCGUAUGUACCUCCAUAACAACAGAGGAUUGAGCAUCA
# B22: 23377172_23382573_874_CDS_ENSMUSG00000026158_ENSMUST00000027343|mouse|control|control (ssRNA)
# RNA: GGGAGUUCUACAGUCCGACGAUCCUCCACUAGAGCCUCGUGAAGAAUGAAUUUUACCAGAGGAGAUUUAAAACUCUCGUAUCCAAGCUCGCCAAGGCUUUUAAGAAUUCGCGUAAUUCUUAAAUAGUUGUGCUGAGACUCAUUCAACAGAGGAUUGAGCAUCA
# Biological target: T1, UNK ZnF1-3
# Test: nsRBNS (natural sequence RNA bind-n-seq); RBNS binding buffer (assumed for nsRBNS): 25 mM Tris pH 7.5, 150 mM KCl, 3 mM MgCl2, 0.01% Triton X-100, 500 ug/ml BSA, 20 U/ml SUPERase-In, 4 C; UNK is unkempt and MSI1 is Musashi-1; names of the RNAs are library labels; protein concentration not given here; high values mean tight binding
row,Binder,binding signal
1,B1,0.826 enrichment R
2,B2,2.03 enrichment R
3,B3,0.724 enrichment R
4,B4,0.768 enrichment R
5,B5,0.899 enrichment R
6,B6,0.312 enrichment R
7,B7,0.697 enrichment R
8,B8,0.412 enrichment R
9,B9,1.51 enrichment R
10,B10,1.31 enrichment R
11,B11,0.619 enrichment R
12,B12,1.29 enrichment R
13,B13,0.963 enrichment R
14,B14,1.07 enrichment R
15,B15,1.21 enrichment R
16,B16,0.614 enrichment R
17,B17,1 enrichment R
18,B18,0.842 enrichment R
19,B19,0.521 enrichment R
20,B20,0.992 enrichment R
21,B21,1.09 enrichment R
22,B22,0.967 enrichment R

# Reference: publication PMC12136788
